# PubChem BioAssay AID686978 (National Center for Advancing Translational Sciences (NCATS), 2013)
# Hit rate of the full screen: of about 420,000 compounds, about 64,000 (15%) were called active. Inconclusive means that the source gave no clear call. Such entries were picked first, then a sample of the others. The call rests on the fitted dose curve; in most records, active means well fitted inhibition curve with a large enough effect; inconclusive means small, poorly fitted or top-dose-only effect; inactive means flat fitted curve, though single readings scatter. Potencies of inconclusive entries are left out as doubtful fits.
# Test: qHTS for Inhibitors of human tyrosyl-DNA phosphodiesterase 1 (TDP1): qHTS in cells in absence of CPT; further: nearly all actives have a fitted effect of over 55% in size
# Details: DT40 Tdp1-/- hTDP1 cells, no CPT, ATP luminescence, 48 h; activity change, negative = growth inhibition: at 46.2 µM (top of the series)
# Procedure, shortened: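 Luminescent ATP content (CellTiter-Glo) served as the growth readout. Knockout chicken DT40 cells expressing human TDP1 were exposed to compounds without camptothecin for a minimum 48 hr at 37 °C.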
# On the % scale 0 is the no-effect control and ±100 the full control effect; potency means the concentration at half of the fitted maximal effect; tags describe the fitted curve by direction and shape.
Compound,Potency,"activity change, negative = growth inhibition"
COc1ccccc1NS(=O)(=O)c1cc(C(=O)N2CCN(C/C=C/c3ccccc3)CC2)ccc1C,"inconclusive [inhibitor, single point]",–
Cc1ccc(NC(=O)COC(=O)c2c(-c3ccccc3)noc2C)c(C)c1,"inconclusive [inhibitor, single point]",–
OC(c1ccccc1)(c1nc(-c2ccc(Cl)cc2)cs1)C(F)(F)F (stereo unspecified),"inconclusive [inhibitor, single point]",–
O=C(O)c1cccc(-n2c(O)c(C=C3N=c4ccccc4=N3)sc2=S)c1,–,inconclusive: -35.2% [inhibitor]
O=C(Nc1ccccc1Cl)[C@H](CSCc1ccccc1)N1Cc2ccccc2C1=O,"inconclusive [inhibitor, single point]",–
CCOC(=O)Cc1nnc(Nc2ccc(C)cc2)c2ccccc12,–,inconclusive: -33.2% [inhibitor]
CC(C)=CCCC(C)c1cc(C(=O)NCCc2ccc(O)cc2)c(N)s1 (stereo unspecified),"inconclusive [inhibitor, single point]",–
O=C(CN1C(=O)CSc2ccc(S(=O)(=O)N3CCCC3)cc21)NCc1ccccc1Cl,inactive,–
CSc1nnc(CNS(=O)(=O)c2ccc(F)cc2F)n1-c1ccccc1C,inactive,–
COc1ccc(/C=C/CN2CCCC(CCC(=O)NCc3ccc(F)c(F)c3)C2)cc1 (stereo unspecified),active: 16.4 µM,–
O=C(CSc1cccc2cccnc12)N/N=C/c1ccc(F)cc1,inactive,–
COc1cccc(N(C(=O)CNC(=O)c2ccco2)C(C(=O)NC2CCCCC2)c2cccnc2)c1 (stereo unspecified),inactive,–
CCOC(=O)c1nc(Nc2ccc(N3CCOCC3)cc2)c2ccccc2n1,"inconclusive [inhibitor, single point]",–
Cc1[nH]c2ccccc2c1C1(O)C(=O)N(Cc2ccccc2)c2ccc(Cl)cc21 (stereo unspecified),active: 5.17 µM,–
COc1ccc(N(C=O)C(=S)SC)cc1,inactive,–
CN(CC#CCC(c1ccccc1)c1ccccc1)C(C)(C)C,active: 17.8 µM,–
COc1ccc(N2CCN(C(=O)c3cc(S(=O)(=O)N4CCCCCC4)ccc3OC)CC2)cc1,active: 16.4 µM,–
CC(=O)N1CCCc2cc(S(=O)(=O)N3CCCC(C(=O)NC(C)C)C3)ccc21 (stereo unspecified),"inconclusive [inhibitor, single point]",–
CC(=O)c1cccc(NC(=O)C2CCCN(S(=O)(=O)c3cccc4cccnc34)C2)c1 (stereo unspecified),"inconclusive [inhibitor, partial curve]",–
Cc1noc(C)c1COC(=O)c1cccnc1SCC(=O)Nc1ccc2c(c1)OCO2,"inconclusive [inhibitor, single point]",–
CSc1ncccc1C(=O)Nc1cccc(S(=O)(=O)N2CCCCC2)c1,active: 14.6 µM,–
Cc1cc(C)cc(NC(=S)NCC2CCN(C(C)c3ccccc3)C2)c1 (stereo unspecified),"inconclusive [inhibitor, single point]",–
CC(C)C(OC(=O)c1cc2sccc2n1C)C(=O)NCC1CCCO1 (stereo unspecified),"inconclusive [inhibitor, single point]",–
Cc1ccc(N(Cc2cc3cc(C)ccc3[nH]c2=O)C(=O)c2cccs2)cc1,active: 23.1 µM,–

Compound,Potency,"activity change, negative = growth inhibition"
Cc1ccccc1NC(=O)Nc1cc(-c2ccccc2)nn1C,inactive,–
CN(C)Cc1cc(CCNC(=O)c2ccc(Cl)cc2)ccc1O,"inconclusive [inhibitor, partial curve]",–
Cc1[nH]c2ccc(-c3nnc(SCC(=O)c4ccccc4F)o3)cc2c1C,active: 18.4 µM,–
Cc1cc(C(=O)CSc2nnc(-c3ccccc3)n2-c2ccccc2)c(C)n1-c1ncn[nH]1,inactive,–
CCOc1ccc(C2c3c(oc4ccc(C)cc4c3=O)C(=O)N2CCCN(C)C)cc1OC (stereo unspecified),"inconclusive [inhibitor, single point]",–
CCOC(=O)C1=C(CP(=O)(c2ccccc2)c2ccccc2)NC(=O)NC1c1ccc(OC)cc1 (stereo unspecified),inactive,–
COc1ccc(/C=C/C(=O)c2ccc[nH]2)cc1OC,"inconclusive [inhibitor, partial curve]",–
COCCCNC(=O)c1c[nH]c2ccc(S(=O)(=O)N(C)c3ccccc3C)cc2c1=O,"inconclusive [inhibitor, single point]",–
CCC1(C)NC(=O)N(CC(=O)N2CCC(Cc3ccccc3)CC2)C1=O (stereo unspecified),inactive,–
CC(C)CCNC(=S)NC1CCCC1,"inconclusive [inhibitor, single point]",–
Cc1ccc(CC(=O)N/N=C/c2ccc3c(c2)OCO3)cc1,inactive,–
Cc1ccc(NC(=S)C2=C(O)c3ccccc3N(C)S2(=O)=O)cc1,active: 20.6 µM,–
COc1cccc(NC(C)(C)c2nnnn2-c2c(C)cccc2C)c1,"inconclusive [inhibitor, single point]",–
CC(C)C(C)(C#N)NC(=O)CSc1nc2scc(-c3ccc(F)cc3)c2c(=O)n1Cc1ccccc1 (stereo unspecified),"inconclusive [inhibitor, single point]",–
CC(=O)c1cc(CC=C(C)C)c(O)cc1O,"inconclusive [inhibitor, single point]",–
Cc1cccc(-c2ccc3c(c2)C2CC3CCN2C(=O)OCc2ccccc2)c1 (stereo unspecified),"inconclusive [inhibitor, single point]",–
Cc1ccc([N+](=O)[O-])cc1N(CC(=O)Nc1ccc(S(=O)(=O)Nc2cccc(C(F)(F)F)c2)cc1)S(C)(=O)=O,active: 18.4 µM,–
COc1ccc(-c2nnc(SCCOc3ccccc3C)o2)cc1OC,active: 18.4 µM,–
O=C(CSc1nnc(CNC(=O)C23CC4CC(CC(C4)C2)C3)n1-c1ccccc1)Nc1ccccc1,"inconclusive [inhibitor, single point]",–
CCCCNC(=O)C1(C)CCN1C(=O)c1cc(-c2cccs2)oc1C (stereo unspecified),active: 3.66 µM,–
CN(Cc1cn(-c2ccccc2)nc1-c1ccc2c(c1)OCO2)Cc1nccn1C,active: 23.1 µM,–
CCN(c1ccccc1)S(=O)(=O)c1ccc(Cl)c(NC(=O)COC(=O)c2ccc[n+]([O-])c2)c1,inactive,–
O=C(CCc1nnc(Cc2c[nH]c3ccccc23)o1)NC1CCCC1,inactive,–
COc1ccc(NC(=O)NNS(=O)(=O)c2ccc(OC)c(OC)c2)c(OC)c1,inactive,–

Compound,Potency,"activity change, negative = growth inhibition"
O=C(Nc1ccccc1-c1nnn(CC(=O)N2CCCc3ccccc32)n1)c1cccc(Cl)c1,"inconclusive [inhibitor, single point]",–
Cn1c(/C=C(\C#N)C(N)=S)ccc1-c1ccc(Br)cc1,"inconclusive [inhibitor, partial curve]",–
COCCCNC(=S)NNC(=O)C1CC1c1ccc(C(C)(C)C)cc1 (stereo unspecified),active: 8.2 µM,–
CCOC(=O)C1(C)CCCN(C(=O)c2ccccc2F)C1 (stereo unspecified),inactive,–
C=CCNC(=O)/C(=C/c1cn(-c2ccccc2)nc1-c1cccc([N+](=O)[O-])c1)NC(=O)c1ccccc1,"inconclusive [inhibitor, single point]",–
COc1cccc(OC)c1OCCCCc1c(C)n[nH]c1C,"inconclusive [inhibitor, partial curve]",–
COc1ccc(NC(=S)Nc2ncccc2C)c(OC)c1,"inconclusive [inhibitor, single point]",–
CCc1c(C)sc(NC(=O)CCc2ccc(OC)cc2)c1C(N)=O,–,inconclusive: -33.9% [inhibitor]
Cc1ccc2c(c1)nnn2C1CCN(CC(=O)NCCc2ccccc2)CC1,"inconclusive [inhibitor, single point]",–
CC(C)c1nnc(NC(=O)CCC(=O)Nc2ccc(Cl)cc2)s1,inactive,–
CCCOc1ccc(-c2cn3ccccc3n2)cc1[N+](=O)[O-],active: 14.6 µM,–
Cc1cc(C)cc(OCCSc2nc3ccc(NC(=O)COc4ccccc4)cc3s2)c1,"inconclusive [inhibitor, single point]",–
Cc1cc(C(=O)CSc2nc3ccccc3c(=O)n2C)c(C)n1Cc1ccc2c(c1)OCO2,active: 6.51 µM,–
COc1ccc(CNC(=O)COC(=O)c2ccccc2OCC(=O)Nc2ccc(SC(F)F)cc2)cc1,"inconclusive [inhibitor, partial curve, poor fit]",–
O=C(CNC(=O)c1[nH]cnc1C(=O)N[C@@H](Cc1ccccc1)C(=O)OCc1ccccc1)OCc1ccccc1,"inconclusive [inhibitor, single point]",–
CC(C)n1c(O)c(N=NC(=O)Cc2csc(N3CCOCC3)n2)c2ccccc21,"inconclusive [inhibitor, single point]",–
Cc1ccc(-n2nnc(-c3nccs3)n2)cc1,"inconclusive [inhibitor, partial curve]",–
COc1ccc(C(CC(=O)N2CCCC2)c2ccc(F)cc2)cc1 (stereo unspecified),"inconclusive [inhibitor, single point]",–
COc1ccc(NC(=O)c2cccnc2N2CCCC2)cc1,"inconclusive [inhibitor, partial curve]",–
O=C(COC(=O)c1ccccc1OCc1cccc(Br)c1)Nc1ccc(Br)cc1,"inconclusive [inhibitor, single point]",–
Cc1ccsc1C(=O)N1CC(=O)Nc2ccccc21,active: 23.1 µM,–
NS(=O)(=O)c1ccc(N2N=C(c3ccc(Br)cc3)CC2c2ccc(F)cc2)cc1 (stereo unspecified),"inconclusive [inhibitor, single point]",–
Cc1cc(C)n(-c2nc(NCC3CCCO3)c3c4c(sc3n2)COC(C)(C)C4)n1 (stereo unspecified),active: 3.66 µM,–
